In the RNAGym collection of RNA variant scans (doi:10.1093/nar/gkz1192):
Read counts are not given, so values of variants with three or more changes are uncertain.

B1: CPEB3 Ribozyme (parent)
chain: UAACAGGGGGCCACAGCAGAAGCGUUCACGUCGCAGCCCCUGUCAGAUUCUGGUGAAUCUGCGAAUUCUGCUGUAUAUCUC

Variants of: B1
Assay: self-cleavage, relative activity (ratio to wild type); higher = more cleavage; in vitro, sequencing
Method in brief: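 For each CPEB3 ribozyme variant, relative activity is its cleaved/total read fraction divided by the unmutated ribozyme's. Barcoded error-prone PCR libraries were transcribed by T7 RNA polymerase (5 hours, 37°C) and held in DNase I for 15 min before an EDTA stop, with cleavage occurring throughout. Template-switching reverse transcription and Illumina sequencing were used to read the RNAs. A 5-read minimum applied, and results are the mean of three batches.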

Row | Variant | self-cleavage
1 | UAACAGGGGGUCACAGCAGAAGCGUUCACGUCGCGGCCCCAGUCAGACCCAGGUGAAUCUGCGAGUUCUGCUGUAUAUCUC | 0.14
2 | UAACAGGGGGUCUCAGCAGAAGCAUCCACGCCGCAGCCUCUGUCAGAUUCUGGUGAAUCUGCGGAUUCUGCUGUAUAUCUC | 0.04
3 | UAACAGGGGGUCACAGCAGAAGCGUUCACGUCGCAGUCCCUGUCAGAUUCUGGUGAAUCCGCGGAUUCUGCUGUAUAUCUC | 0.26
4 | UAACAGGGGGUCACGGCAGAAGCGUUCACGUCGCAGCCCCUGUCAGAUUCUGGUGAAUCCGCGAAUUCUGCUGCAUAUCUC | 0.08
5 | UAACAGGGGGUCGCAGCAGAAGCGCUCACGUCGCAGCCCCUGCCAUAUUCUGGUGAAUCUGCGAAUUCUGCUGUAUAUCUC | 0.3
6 | UAACAGGGGGUCACCGCAGAAGCGUUCACGUCGCAGCCCCUGUCAGAUUCUGGCGAAUCUGCGAAUUCUGCCGUAUAUCUC | 0.16
7 | UAACAGGGGGUCACAGCAGAAGCCUUCACGUCGCAGCCCCUGUCAGAUUCAGGUGAAUCUGCGAAUUCUGCUGUAUAUCUC | 0.2
8 | UAACAGGGGGUCACGGCAGAAGCGUUCACUUCGCAGUCCCCGUCAGACUCUGGUGAAUCUGCGAACUCUGCUGUAUAUCUC | 0.22
9 | UAACAGGGGGUCACAGCAGAUGCGUUCGCGUCGCAGCCCCCGUCAGAUUCUAGUGAAUCUGCGGAUUCUGCUGUAUAUCUC | 0.04
10 | UAACAGGGGGUCACAGCAGAAGCGUUCCCGUCGCAGCCCCUGUCAGUUUCUGGUGAACCUGCAUAUUCUGCUGUAUAUCUC | 0.07
11 | UAACAGGGGGUCACAGCAGAAGCGUUCGUGUCGCAGCCCCUGUCAGAUUCUGGUGAAUCUGCGUAUUCUGCUGCGUAACUC | 0.03
12 | UAACAGGGGGUCACGGCAGAAGCGUUCACGUCGCAGCCACUGUCAGAUUCUGGUGAGUCUGCGAAUUCUGCUGUAUAUCUC | 0.28
13 | UAACAGGGGGGCACAGCAGAAGCGUUCACGUCGCAGCCCCUGUCAGAUACUGGUGAAUCUGCGAAUUCUGCUGUAUAUCCC | 0.41
14 | UAACAGGGGGUCACAGCAGAAGCGUUCACGUCGCAGCCCCUGUCAGAUUCUGGUGGAUCCGCGAAUUCUGCUGUAUAUCCC | 0.15
15 | UAACAGGGGGGCACAGCAGAAGCGUUCACGUCGCAGCCCCUGUCAGAUUCUGGUGAAUCUGCGAAUCCUGCUAUAUAUCUC | 0.02
16 | UAACAGGGGGUCCCGGCAGAAGCGUACACGUCGCAGCCCCUGUAAGAUUCUGGUGAAUCUGCGAGUUCUGCUGUAUAUCAC | 0.02
17 | UAACAGGGGGUCACUGCAGAAGCGUUCGCGUCGCAGCACCUGUCAGAUUCUGGUGGGUCUGCGAGUUCUGCUGUAUAUCUC | 0.11

Row | Variant | self-cleavage
18 | UAACAGGGGGUCACAGCAGAAGCGUUCGCGUCGCAGCCCCUGUCAGAUUCAGGUGGAUCUGCGAAUUCUGCUGUAUAUCUC | 0.13
19 | UAACAGGGGGUCACAGCAGGAGCGUUCACGUCGCGGCCCCUGUCGUAUUCUGGUGAAUCUGCGAAUUCUGCUGUAUAUCUC | 0.04
20 | UAACAGGGGGUCACAGCAGAAGCGUUCGCGUCGCAGCCCCUGUCAGAUUCUGAUGGAUCUGCGAAUUCUGCUGUAUACCUC | 0.07
21 | UAACAGGGGGUCACAGCAGAAGCGUUCGCGUCGCGGCCCCCGUCAGAUUCUGGUGAAUCUGCGGAUUCUGCUGUAUAUCUC | 0.52
22 | UAACAGGGGGUCACAGCGGAAGCGUUCACGCCGCAGCCCCUGUCAGAUUCUGGUGAAUCUGCGAAUUCUGCUGUAUAUCUC | 0.25
23 | UAACAGGGGGUCACAGCAGAAGCAUUCACGUCGCAGCCCCCGUCAGAUUCAGGUGAAUCCGCGAAUUCUGCUGUAUGUCUC | 0.04
24 | UAACAGGGGGUCACAGCAGAAGCGUUCAUGUCGCAGCCCCUGUCAGAUCCUGGUUAAUCUUCGAAUUCUGCUGUAUAUCUC | 0.05
25 | UAACAGGGGGUCGCAGCAGGAGCGUUCACGUCGCAGCCCCUGUCAGAUUCUGGUGAAUCUGCGAAUUCUGCUGUAUAUCUC | 0.47
26 | UAACAGGGGGUCACAGCAGAAGCGUUAACGUCGCAGUCCCUGUCAGACUCUGGUGAAUCUGCGAACUCCGCUGUAUAUCUC | 0.03
27 | UAACAGGGGGUCACAGCAGAGGCGUUCACGUCGCAGCCCCUGUCAGAUUCUGGUGAAUCUGCGAUUUCUGCUGUAUAUCUC | 0.21
28 | UAACAGGGGGUGACAGCAGAAGCGUUCACGUCGCAGCCCCUGUCAGAUUCUGGUGAAUCUGCAAGUUCUGCCGUAUAUCUC | 0.14
29 | UAACAGGGGGUCACAGCAGAAGCGUUCAUGUCGCAGCCCCUGUCAGAUUCUGGUGUGUCUGCGGAUUCUGCUGUAUAUCUC | 0.09
30 | UAACAGGGGGUCACGGCAGUAGCGUUCACGUCGCAGCCCCUGUCAGAUUCUGGUGAUUCAGCGAAUUCUGCUGUGUAUCUC | 0.04
31 | UAACAGGGGGUCACGGCAGAAGCGUUCACGUCGCAGCCCCUGUCAGAUUCUGGUGAAUCUGCGAAUUCUGCUGUGUAUCUC | 0.35
32 | UAACAGGGGGUCACAGCAGAAGCGUUCUCGUCGCAGCCCCUGUCGGAUUCUGGUGAAUCAGCGUAUUCUGCUGUAUAUCUC | 0.15
33 | UAACAGGGGGUCACGCCAGAAGCGUUCACGUCGCAGCCCCUGUCAGAUUCUGGUGAGUCUGCGACUUCUGCUGUAUAUCCC | 0.04
34 | UAACAGGGGGUCACAGCAGAAGCGUUCACGUCGCGGCCCCUGCCAGAUUCUGGUGAAUCUGCAAAUUCUGCUGUAUAUCUC | 0.98
